Measurements taken from article PMC7195432, “MD2 activation by direct AGE interaction drives inflammatory diabetic cardiomyopathy” (Nature Communications, 2020).
No constants are given. Whether binding was seen depends on the method and setting. In cells and extracts the contact can be indirect. Some entries that bind do so weakly or less than the wild type.

Protein sequences, listed by entry. Tags and fused reporters are not part of them. Residues count along the entry.
UniProt Q9QUK6, residues 26-835: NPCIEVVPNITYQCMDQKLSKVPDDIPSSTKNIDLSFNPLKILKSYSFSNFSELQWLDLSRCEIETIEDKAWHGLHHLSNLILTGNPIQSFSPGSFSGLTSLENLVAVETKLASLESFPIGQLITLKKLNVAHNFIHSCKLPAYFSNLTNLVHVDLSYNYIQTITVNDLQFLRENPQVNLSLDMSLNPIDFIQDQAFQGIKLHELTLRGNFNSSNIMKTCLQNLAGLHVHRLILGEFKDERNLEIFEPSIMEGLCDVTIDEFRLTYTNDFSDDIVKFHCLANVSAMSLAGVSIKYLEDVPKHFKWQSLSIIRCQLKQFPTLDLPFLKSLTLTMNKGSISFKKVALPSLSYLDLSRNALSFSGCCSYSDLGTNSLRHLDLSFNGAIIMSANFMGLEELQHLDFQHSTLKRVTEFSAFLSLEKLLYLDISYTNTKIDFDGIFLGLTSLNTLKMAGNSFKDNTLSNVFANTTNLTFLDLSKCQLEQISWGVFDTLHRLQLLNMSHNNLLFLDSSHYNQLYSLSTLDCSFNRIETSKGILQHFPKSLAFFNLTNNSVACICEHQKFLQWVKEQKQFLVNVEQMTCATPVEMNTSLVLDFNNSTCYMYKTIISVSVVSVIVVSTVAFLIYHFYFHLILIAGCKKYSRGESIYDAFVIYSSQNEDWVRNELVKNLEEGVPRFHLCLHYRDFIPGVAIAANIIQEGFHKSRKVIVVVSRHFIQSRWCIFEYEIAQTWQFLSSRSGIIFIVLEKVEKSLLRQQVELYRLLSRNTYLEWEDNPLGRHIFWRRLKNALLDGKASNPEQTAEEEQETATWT
UniProt O00206, residues 24-839: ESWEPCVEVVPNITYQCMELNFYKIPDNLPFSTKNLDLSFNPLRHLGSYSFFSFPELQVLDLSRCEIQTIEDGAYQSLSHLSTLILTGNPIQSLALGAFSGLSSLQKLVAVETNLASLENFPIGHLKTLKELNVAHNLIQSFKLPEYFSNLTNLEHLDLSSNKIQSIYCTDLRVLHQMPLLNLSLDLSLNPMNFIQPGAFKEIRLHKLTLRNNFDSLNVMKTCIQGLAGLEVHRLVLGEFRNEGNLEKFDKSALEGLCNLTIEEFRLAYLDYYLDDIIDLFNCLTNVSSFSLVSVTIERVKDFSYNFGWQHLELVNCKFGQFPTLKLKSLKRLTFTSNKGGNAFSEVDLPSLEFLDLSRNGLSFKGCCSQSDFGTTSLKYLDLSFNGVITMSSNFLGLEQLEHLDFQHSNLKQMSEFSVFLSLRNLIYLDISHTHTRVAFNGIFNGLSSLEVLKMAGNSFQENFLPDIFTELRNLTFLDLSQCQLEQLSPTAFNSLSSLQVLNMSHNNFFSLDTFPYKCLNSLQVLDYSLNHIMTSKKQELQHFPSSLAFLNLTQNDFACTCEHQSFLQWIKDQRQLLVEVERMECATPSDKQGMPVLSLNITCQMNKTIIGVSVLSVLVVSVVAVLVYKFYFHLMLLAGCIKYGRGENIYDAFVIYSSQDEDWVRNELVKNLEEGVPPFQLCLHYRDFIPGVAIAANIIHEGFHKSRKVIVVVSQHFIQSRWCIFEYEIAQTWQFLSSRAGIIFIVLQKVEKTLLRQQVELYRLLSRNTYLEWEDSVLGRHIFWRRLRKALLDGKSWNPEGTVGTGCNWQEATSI
UniProt P22366: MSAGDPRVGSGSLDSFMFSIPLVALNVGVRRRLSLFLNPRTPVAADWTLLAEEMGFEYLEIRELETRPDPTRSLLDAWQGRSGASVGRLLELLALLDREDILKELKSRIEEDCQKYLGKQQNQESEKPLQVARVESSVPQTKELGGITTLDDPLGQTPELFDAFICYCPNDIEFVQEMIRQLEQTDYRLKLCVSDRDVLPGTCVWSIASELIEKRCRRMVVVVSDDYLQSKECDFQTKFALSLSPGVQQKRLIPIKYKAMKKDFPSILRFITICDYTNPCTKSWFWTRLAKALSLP
UniProt Q6Y1S1: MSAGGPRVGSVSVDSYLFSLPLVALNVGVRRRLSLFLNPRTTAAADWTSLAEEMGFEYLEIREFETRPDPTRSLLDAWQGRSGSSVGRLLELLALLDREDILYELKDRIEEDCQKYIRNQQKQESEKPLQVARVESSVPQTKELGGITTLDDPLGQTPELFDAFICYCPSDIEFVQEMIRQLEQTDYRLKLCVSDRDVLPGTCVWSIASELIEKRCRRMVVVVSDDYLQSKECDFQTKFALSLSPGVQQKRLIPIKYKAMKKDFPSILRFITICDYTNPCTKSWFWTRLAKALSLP

What was measured:
[1] = biological target: toll-like receptor 4 (TLR4), mouse, endogenous (mouse (endogenous in heart tissue and peritoneal macrophages)) (UniProt Q9QUK6); assay: co-IP; MPM lysates; cells exposed to HG in medium without serum
[2] = biological target: toll-like receptor 4 (TLR4), mouse, endogenous (mouse (endogenous in heart tissue and peritoneal macrophages)) (UniProt Q9QUK6); assay: condition: only cells given 30 μg/mL MGO-BSA or CML-BSA in place of AGE-BSA; co-IP; MPM lysates; cells exposed to 30 μg/mL MGO-BSA or CML-BSA in place of AGE-BSA
[3] = biological target: toll-like receptor 4 (TLR4), mouse, endogenous (mouse (endogenous in heart tissue and peritoneal macrophages)) (UniProt Q9QUK6); assay: condition: only cells pretreated with 10 μM MD2 inhibitor L6H21 for 30 min; co-IP; MPM lysates; cells pretreated with 10 μM MD2 inhibitor L6H21 for 30 min before HG (33 mM glucose)
[4] = biological target: toll-like receptor 4 (TLR4), mouse, endogenous (mouse (endogenous in heart tissue and peritoneal macrophages)) (UniProt Q9QUK6); assay: co-IP; mouse primary peritoneal macrophage (MPM) lysates, endogenous proteins; cells in medium with FBS exposed to HG (33 mM glucose; MD2-TLR4 at 5 min, TLR4-MyD88 at 15 min) or to AGE-BSA
[5] = biological target: T1, toll-like receptor 4 (TLR4), rat, endogenous (rat (endogenous in H9C2 and primary cardiomyocytes)) (UniProt Q9QX05); assay: co-IP; H9C2 lysates; cells exposed to HG in medium without serum
T1 sequence: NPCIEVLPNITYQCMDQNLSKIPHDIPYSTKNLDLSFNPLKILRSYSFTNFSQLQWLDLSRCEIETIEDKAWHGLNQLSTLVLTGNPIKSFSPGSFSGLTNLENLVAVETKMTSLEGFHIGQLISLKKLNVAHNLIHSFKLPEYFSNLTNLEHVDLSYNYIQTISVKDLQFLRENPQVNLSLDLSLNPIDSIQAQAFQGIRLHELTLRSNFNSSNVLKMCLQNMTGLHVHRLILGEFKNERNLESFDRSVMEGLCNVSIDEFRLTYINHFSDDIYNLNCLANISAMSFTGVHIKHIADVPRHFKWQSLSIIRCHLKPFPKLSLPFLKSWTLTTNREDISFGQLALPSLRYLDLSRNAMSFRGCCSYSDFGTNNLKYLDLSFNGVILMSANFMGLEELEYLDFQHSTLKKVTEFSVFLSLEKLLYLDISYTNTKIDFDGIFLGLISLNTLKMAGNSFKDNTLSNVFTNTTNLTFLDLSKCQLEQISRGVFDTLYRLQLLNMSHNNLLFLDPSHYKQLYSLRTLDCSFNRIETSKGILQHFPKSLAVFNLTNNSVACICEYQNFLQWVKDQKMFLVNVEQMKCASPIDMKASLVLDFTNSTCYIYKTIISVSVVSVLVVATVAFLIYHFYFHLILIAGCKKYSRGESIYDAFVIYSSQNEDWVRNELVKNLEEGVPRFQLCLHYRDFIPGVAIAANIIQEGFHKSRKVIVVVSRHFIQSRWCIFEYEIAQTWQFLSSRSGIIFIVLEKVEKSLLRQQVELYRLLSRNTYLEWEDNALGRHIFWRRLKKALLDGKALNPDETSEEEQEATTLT

[6] = biological target: T1, toll-like receptor 4 (TLR4), rat, endogenous (rat (endogenous in H9C2 and primary cardiomyocytes)); assay: condition: only cells given 30 μg/mL MGO-BSA or CML-BSA in place of AGE-BSA; co-IP; H9C2 lysates; cells exposed to 30 μg/mL MGO-BSA or CML-BSA in place of AGE-BSA
[7] = biological target: T1, toll-like receptor 4 (TLR4), rat, endogenous (rat (endogenous in H9C2 and primary cardiomyocytes)); assay: co-IP; H9C2 lysates, endogenous proteins; cells in medium with FBS exposed to HG (33 mM glucose, 5-30 min; 7-60 mM) or to AGE-BSA; also after siRNA to MD2, TLR4 or GLUT4, RAGE shRNA, NAC, 2-DG, polymyxin B or RS-LPS
[8] = biological target: toll-like receptor 4 (TLR4), mouse, endogenous (mouse (endogenous in heart tissue and peritoneal macrophages)) (UniProt Q9QUK6); assay: co-IP; homogenized mouse heart tissue lysates (non-diabetic controls, STZ diabetic mice at 16 weeks, db/m and db/db mice); precipitating antibody overnight at 4 °C, protein A + G-sepharose, immunoblot
[9] = biological target: toll-like receptor 4 (TLR4), human, endogenous (human (endogenous in PBMCs)) (UniProt O00206); assay: co-IP; human peripheral blood mononuclear cells of healthy and diabetic subjects; blots of AGE-MD2 complexes

Q: With “myeloid differentiation primary response-88 (MyD88), mouse, endogenous (from UniProt P22366 1-296)” as the molecule, how does the binding [1] read?
A: Its binding is “no binding (condition: HG in medium without serum)”.

Q: And the binding [2]?
A: Its binding is “no binding”.

Q: What about the binding [3] of the same molecule?
A: Its binding is “no binding”.

Q: What about the binding [4] of the same molecule?
A: The binding was “binds”.

Q: With “myeloid differentiation primary response-88 (MyD88), rat, endogenous (from UniProt Q6Y1S1 1-296)” as the molecule, how does the binding [5] read?
A: Its binding is “no binding (condition: HG in medium without serum)”.

Q: And the binding [6]?
A: The binding was “no binding”.

Q: What about the binding [7] of the same molecule?
A: Its binding is “binds”.

B1: myeloid differentiation 2 (MD2), mouse, endogenous (protein, UniProt Q9JHF9 19-160)
chain: EKQQWFCNSSDAIISYSYCDHLKFPISISSEPCIRLRGTNGFVHVEFIPRGNLKYLYFNLFISVNSIELPKRKEVLCHGHDDDYSFCRALKGETVNTSIPFSFEGILFPKGHYRCVAEAIAGDTEEKLFCLNFTIIHRRDVN
Q: With B1 as the molecule, how does the binding [1] read?
A: Its binding is “no binding (condition: HG in medium without serum)”.

Q: And the binding [2]?
A: The binding was “no binding”.

Q: What about the binding [3] of the same molecule?
A: The binding was “no binding”.

Q: What about the binding [4] of the same molecule?
A: The binding was “binds”.

Q: What about the binding [8] of the same molecule?
A: Its binding is “binds”.

B2: recombinant human MD2 (rhMD2) (natural protein, UniProt Q9Y6Y9 19-160, looked up)
chain: QKQYWVCNSSDASISYTYCDKMQYPISINVNPCIELKRSKGLLHIFYIPRRDLKQLYFNLYITVNTMNLPKRKEVICRGSDDDYSFCRALKGETVNTTISFSFKGIKFSKGKYKCVVEAISGSPEEMLFCLEFVILHQPNSN
notes: MD2 (myeloid differentiation 2), human, recombinant; also called human recombinant MD2 protein; source: bought: R&D Systems
Q: For B2, which binding [9] is on record?
A: The binding was “binds”.
